# Data reported in publication PMC4336329 (PLoS ONE, 2015).
# About 14,000 (4.5%) of roughly 310,000 compounds showed an effect of 50% or more. The effect is printed as a negative number. Some of the results follow.
# Biological target: human ether-à-go-go-related gene (hERG) potassium channel (human, UniProt Q12809)
# Assay: primary screen, population patch clamp on CHO cells stably expressing hERG
# 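Also: peak tail current of the secondary pulse compared with the same well before compound.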
# Sequence of human ether-à-go-go-related gene (hERG) potassium channel (Q12809 whole entry, looked up): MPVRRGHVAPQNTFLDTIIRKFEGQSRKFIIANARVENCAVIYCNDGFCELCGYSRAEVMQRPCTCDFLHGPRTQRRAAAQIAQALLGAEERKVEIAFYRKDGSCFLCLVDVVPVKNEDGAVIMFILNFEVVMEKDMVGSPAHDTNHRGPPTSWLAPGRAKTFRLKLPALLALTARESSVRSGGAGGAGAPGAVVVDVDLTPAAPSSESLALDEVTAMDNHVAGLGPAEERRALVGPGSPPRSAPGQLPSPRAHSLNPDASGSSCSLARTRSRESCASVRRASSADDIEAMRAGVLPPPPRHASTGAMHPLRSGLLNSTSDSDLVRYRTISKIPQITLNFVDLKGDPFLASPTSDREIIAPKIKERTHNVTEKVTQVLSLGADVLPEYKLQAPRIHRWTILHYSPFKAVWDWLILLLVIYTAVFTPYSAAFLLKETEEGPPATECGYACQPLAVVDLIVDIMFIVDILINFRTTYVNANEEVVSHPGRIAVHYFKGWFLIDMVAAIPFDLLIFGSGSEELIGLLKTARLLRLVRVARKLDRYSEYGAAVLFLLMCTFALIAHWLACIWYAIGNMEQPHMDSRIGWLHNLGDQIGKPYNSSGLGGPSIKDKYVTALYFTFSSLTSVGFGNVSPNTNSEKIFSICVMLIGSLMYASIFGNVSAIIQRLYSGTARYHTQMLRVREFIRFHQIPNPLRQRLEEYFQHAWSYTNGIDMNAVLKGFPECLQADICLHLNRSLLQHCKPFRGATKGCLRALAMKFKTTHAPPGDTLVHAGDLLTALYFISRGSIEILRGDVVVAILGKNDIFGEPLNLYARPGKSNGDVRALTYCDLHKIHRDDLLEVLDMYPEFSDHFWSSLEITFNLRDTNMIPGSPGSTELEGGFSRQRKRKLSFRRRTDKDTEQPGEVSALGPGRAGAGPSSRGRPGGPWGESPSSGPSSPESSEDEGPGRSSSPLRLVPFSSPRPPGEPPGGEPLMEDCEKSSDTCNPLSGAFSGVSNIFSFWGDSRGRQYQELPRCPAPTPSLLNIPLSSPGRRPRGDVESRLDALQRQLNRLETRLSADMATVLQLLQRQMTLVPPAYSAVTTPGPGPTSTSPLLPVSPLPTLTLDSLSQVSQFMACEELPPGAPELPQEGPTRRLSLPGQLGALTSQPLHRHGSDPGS
row,SMILES,"hERG current change (%, negative = inhibition) at 10uM [%]"
1,CC(=O)Nc1ccc2nc(SCC(=O)O)sc2c1,9.25
2,O=C(O)c1ccc(NCc2ccc(Br)cc2)cc1,6.53
3,CC(=O)Nc1ccc(S(=O)(=O)Oc2cccc(N3C(=O)C4CC=CCC4C3=O)c2)cc1 (centres unmarked),-13.1
4,O=[N+]([O-])c1ccc(Oc2ccc(S(=O)(=O)N3CCOCC3)cn2)cc1,-32.6
5,Cc1occc1C(=O)OCC(=O)Nc1ccc(F)cc1,-7.55
6,CCCc1cc(=O)oc2cc(C)cc(OC(C)C(=O)NCC(O)c3ccccc3)c12 (centres unmarked),7.42
7,CCCCCCCC(=O)NNC(=O)c1c(O)c2ccccc2n(CCC)c1=O,13.2
8,CN(C)S(=O)(=O)c1ccc(C(=O)OCC2CC2(Cl)Cl)cc1 (centres unmarked),10.7
9,Cc1cc(-c2ccc(C)c(S(=O)(=O)N3CCN(c4ccc([N+](=O)[O-])cc4)CC3)c2)on1,-67.8
10,COc1ccc(OC)c(S(=O)(=O)N(C)CC(=O)N2CCN(c3ccccc3F)CC2)c1,-6.63
11,O=C(CNC(=S)N(CCCN1CCOCC1)Cc1cccs1)N1CCCC1,3.09
12,CC(C)CCOP(=O)(c1ccc(N(C)C)cc1)C(Nc1ccccc1)c1ccc(N(C)C)cc1 (centres unmarked),0.941
13,O=C(CN1CCN(c2ccccn2)CC1)Nc1cccc(Br)c1,-38.2
14,Clc1cc(Cl)c(OCCCCn2cncn2)c(Cl)c1,-39.6
15,COc1ccc(-n2nnc3c(=O)n(C/C=C/c4ccccc4)cnc32)cc1,-23
16,N=c1c2c(-c3ccccc3)c(-c3ccccc3)n(Cc3ccco3)c2ncn1CCCn1ccnc1,-74.3
17,COc1cccc(C(=O)NCC(c2ccco2)N2CCOCC2)c1 (centres unmarked),5.65
18,CN(C)/C=N/c1nc2ccc3c(c2s1)CCCC3,5.76
19,COc1ccc(OCC(=O)N2CCC(Cc3ccccc3)CC2)cc1,-36

row,SMILES,"hERG current change (%, negative = inhibition) at 10uM [%]"
1,Cl.c1ccc(-c2nc(NCc3ccco3)c3ccccc3n2)cc1,-33.4
2,CCCCc1ccc(NC(=O)CSc2nc(=O)n(CCN3CCOCC3)c3c2CCC3)cc1,-66.5
3,COc1ccc(-c2c(-c3ccsc3)oc3ccc(N4CCOCC4)cc23)cn1,7.49
4,CCOc1ccc2c(c1)/C(=N/N1C(=O)c3ccccc3C1=O)C(=O)N2,23.6
5,O=C1C(=O)N(Cc2ccccc2)C(=O)N1CCN1C(=O)c2ccccc2C1=O,-11.6
6,O=C(NC1CCSc2ccccc21)c1ccc(C(F)(F)F)cc1 (centres unmarked),4.92
7,CCCNC(=O)NC(=O)CSc1nc2ccccc2n1CC(C)C,-27.7
8,Cc1[nH]c(=O)[nH]c(=O)c1CSc1nnc([C@H](CC(C)C)NC(=O)OC(C)(C)C)o1,1.9
9,O=C(COc1ccc2c(c1)CCC2)N1CCN(c2ccccc2F)CC1,-6.13
10,CN(CC(=O)Nc1sccc1C#N)C1CCCCC1,5.5
11,COc1ccc(NC(=O)c2nn(C34CC5CC(CC(C5)C3)C4)cc2[N+](=O)[O-])cc1,-0.0263
12,CC(=O)NCC1CCCN(Cc2cn(-c3ccccc3F)nc2-c2cc(C)sc2C)C1 (centres unmarked),-19.1
13,COCCN(C(=O)C1CCN(C(=O)c2ccccc2C)CC1)c1c(N)n(CC(C)C)c(=O)[nH]c1=O,10.2
14,N#Cc1ccc(-c2ccc(F)cc2)nc1Oc1ccc(F)cc1,7.47
15,Cc1ccccc1OCCC(=O)OCC(=O)Nc1ccc(C(N)=O)cc1,8.08
16,COc1ccc(Nc2nnc(C)c(=O)[nH]2)cc1,-6.61
17,COC(=O)c1sccc1-n1cccc1C(=O)C(=O)N1CCOCC1,-78.3
18,CCN(CC)C(=O)c1ccc(S(=O)(=O)NCc2cccnc2)cc1,13.9
19,COC(=O)c1c(NC(=O)CC2SC(N)=NC2=O)sc2c1CCC(C(C)(C)C)C2 (centres unmarked),6.31

row,SMILES,"hERG current change (%, negative = inhibition) at 10uM [%]"
1,CC(C)(C)C(=O)CSc1nccc(=O)[nH]1,-0.329
2,CCN(CC)C(=O)C1CCCN(C(=O)c2cc(COc3ccc4ncccc4c3)on2)C1 (centres unmarked),7.9
3,O=C(c1cnn2c(C(F)(F)F)cc(-c3ccccc3)nc12)N1CCCCC1c1cccnc1 (centres unmarked),-17.9
4,COc1ccccc1NC(=O)c1cc(C(=O)Nc2ccccc2OC)n(C)n1,19
5,Nc1ncc(Br)cc1S(=O)(=O)NCCc1ccccc1,13.7
6,COc1cc(OC)c(C2CC(=O)N3CN(C)CSC3=C2C#N)cc1OC (centres unmarked),19.4
7,CC(OC(=O)Cc1coc2cc3c(cc12)CCC3)C(=O)NCc1ccc2c(c1)OCO2 (centres unmarked),-8.93
8,CCOc1ccc(CN(C)C(C)C(=O)NCCc2ccc(F)cc2)cc1 (centres unmarked),-71.5
9,COc1cccc(OC)c1C(=O)NC(=S)N1CCOCC1,17.2
10,CC(C)Oc1ccc(C(=O)NC2CCCCC2)cc1,10.3
11,COc1ccc(-c2noc(-c3ccccc3-c3ccccc3)n2)cc1OC,7.72
12,CN(C)C(=O)c1ccc(NC(=O)CSc2nc3ccccc3[nH]2)cc1,1.59
13,O=C(O)CN1C(=O)/C(=C/c2cccc(Cl)c2)Oc2ccccc21,-4.77
14,Cc1ccc(S(=O)(=O)N2CCCCC2)cc1NC(=O)COC(=O)C1CC2C=CC1C2 (centres unmarked),-62
15,CCCNC(=O)Nc1nc(CC(=O)OCC)cs1,29.1
16,COc1ccc(S(=O)(=O)N2CCC3(CC2)OCCN3S(=O)(=O)c2ccc(C)cc2)cc1OC,-28.7
17,O=C(CN1C(=O)COc2ccc(S(=O)(=O)N3CCCC3)cc21)NC1CC1,7.44
18,COc1ccc(NC(=O)c2ccc(Cl)cc2)c[n+]1[O-],12.9
